Some of the results follow.
Key:
HSkMC = human skeletal muscle cells; assay: cytotoxicity call (relative viability < 0.9); conditions: 10 µM
S. aureus RN4220 = assay: growth inhibition call (relative growth <= 0.2); conditions: 50 µM

## Cc1ccc(S(=O)(=O)NCC[C@H]2CC[C@@H](NS(=O)(=O)c3ccccc3Cl)[C@@H](CO)O2)cc1
HSkMC
  cytotoxicity call: inactive
S. aureus RN4220
  growth inhibition call: inactive

## C[C@H]1CN([C@@H](C)CO)C(=O)Cc2cc(NS(=O)(=O)c3cccs3)ccc2O[C@H]1CN(C)Cc1ccc(Oc2ccccc2)cc1
HSkMC
  cytotoxicity call: inactive
S. aureus RN4220
  growth inhibition call: inactive

## Cc1ccccc1S(=O)(=O)N1C[C@@H](O)COC[C@@H]2O[C@@H](CC(=O)N3CCOCC3)CC[C@H]21
HSkMC
  cytotoxicity call: inactive
S. aureus RN4220
  growth inhibition call: inactive

## C[C@H]1COC(=O)[C@H](Cc2ccc(F)cc2)CC=CC[C@@H](CC(=O)N[C@H](CO)Cc2ccccc2)C(=O)N1
HSkMC
  cytotoxicity call: inactive
S. aureus RN4220
  growth inhibition call: inactive

## C[C@@H]1CN([C@H](C)CO)C(=O)c2cc(NC(=O)Nc3ccc(C(F)(F)F)cc3)ccc2O[C@@H]1CN(C)C(=O)Nc1ccc2c(c1)OCO2
HSkMC
  cytotoxicity call: inactive
S. aureus RN4220
  growth inhibition call: inactive

## c1ncc(CC2CCNCC2)[nH]1
HSkMC
  cytotoxicity call: inactive
S. aureus RN4220
  growth inhibition call: inactive

## COc1ccc(C#Cc2ccc3c(c2)O[C@@H](CN(C)C(=O)CN2CCOCC2)[C@H](C)CN([C@H](C)CO)S3(=O)=O)cc1
HSkMC
  cytotoxicity call: inactive
S. aureus RN4220
  growth inhibition call: inactive

## C[C@H]1CN([C@@H](C)CO)C(=O)Cc2cc(NS(=O)(=O)c3cccs3)ccc2O[C@H]1CN(C)S(C)(=O)=O
HSkMC
  cytotoxicity call: inactive
S. aureus RN4220
  growth inhibition call: inactive

## C[C@@H]1CN([C@H](C)CO)C(=O)c2cc(NC(=O)CCC(F)(F)F)ccc2O[C@@H](C)CCCCO[C@H]1CN(C)Cc1ccncc1
HSkMC
  cytotoxicity call: inactive
S. aureus RN4220
  growth inhibition call: inactive

## O=C(C[C@H]1CC[C@H]2[C@@H](COC[C@@H](O)CN2Cc2cc(F)ccc2F)O1)N[C@@H]1CCN(Cc2ccccc2)C1
HSkMC
  cytotoxicity call: inactive
S. aureus RN4220
  growth inhibition call: inactive

## C[C@H](CO)N1C[C@H](C)[C@H](CN(C)C(=O)Nc2cccc3ccccc23)Oc2ccc(NC(=O)Nc3ccccc3)cc2CC1=O
HSkMC
  cytotoxicity call: inactive
S. aureus RN4220
  growth inhibition call: inactive

## CC(C)[C@@H](N)C(=O)O
HSkMC
  cytotoxicity call: inactive
S. aureus RN4220
  growth inhibition call: inactive
